Reference: patent US20250026852A1 (Chugai, published 2025)

T1: soluble human IL-6R (human, UniProt P08887 20-357)
T1 construct: also called hsIL-6R; recombinant human IL-6R
T1 sequence: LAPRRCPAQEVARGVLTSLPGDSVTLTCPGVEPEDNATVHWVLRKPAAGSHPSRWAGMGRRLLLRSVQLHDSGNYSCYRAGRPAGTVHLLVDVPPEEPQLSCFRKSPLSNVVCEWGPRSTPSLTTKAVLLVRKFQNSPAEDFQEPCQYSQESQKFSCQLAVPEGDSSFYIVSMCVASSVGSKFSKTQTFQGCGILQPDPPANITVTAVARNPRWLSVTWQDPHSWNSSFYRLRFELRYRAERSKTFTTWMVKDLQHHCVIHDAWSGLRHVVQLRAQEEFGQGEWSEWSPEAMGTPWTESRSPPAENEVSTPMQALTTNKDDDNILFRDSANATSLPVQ

T2: human CD3ed-Fc (human)
T2 construct: Biotinylated in culture by BirA; also called biotin-labeled protein containing human CD3 epsilon and human CD3 delta linked to a human antibody constant region; CD3 heterodimer fused with the antibody constant region
T2 chain 1: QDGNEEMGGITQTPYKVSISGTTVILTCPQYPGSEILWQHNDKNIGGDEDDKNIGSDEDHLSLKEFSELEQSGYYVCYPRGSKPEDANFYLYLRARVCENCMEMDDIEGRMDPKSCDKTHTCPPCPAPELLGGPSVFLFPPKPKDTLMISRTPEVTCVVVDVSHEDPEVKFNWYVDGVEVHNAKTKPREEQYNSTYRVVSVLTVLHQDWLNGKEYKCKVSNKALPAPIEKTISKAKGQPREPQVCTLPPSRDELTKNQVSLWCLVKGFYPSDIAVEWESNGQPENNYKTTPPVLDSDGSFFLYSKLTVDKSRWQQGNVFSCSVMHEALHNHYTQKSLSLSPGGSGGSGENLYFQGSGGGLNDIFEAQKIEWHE
T2 chain 2: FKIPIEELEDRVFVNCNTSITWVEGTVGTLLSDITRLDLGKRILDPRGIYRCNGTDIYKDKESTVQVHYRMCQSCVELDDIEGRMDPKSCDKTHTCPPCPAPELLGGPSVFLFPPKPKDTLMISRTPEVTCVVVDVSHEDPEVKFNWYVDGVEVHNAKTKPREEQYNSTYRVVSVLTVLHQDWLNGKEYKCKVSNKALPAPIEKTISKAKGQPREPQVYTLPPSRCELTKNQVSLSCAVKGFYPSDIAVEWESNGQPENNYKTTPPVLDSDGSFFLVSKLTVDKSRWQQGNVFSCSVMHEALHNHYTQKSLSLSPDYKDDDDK

B1: 20A11-G1m/VK1-39-k0MT (other)
heavy: EVQLVESGGGLVQPGGSLRLSCAASGSVFKINVMAWYRQAPGKGRELVAGIISGGSTSYADSVKGRFTISRDNAKNTLYLQMNSLRPEDTAVYYCAFITTESDYDLGRRYWGQGTLVTVSS[gap - human IgG1 constant region]
light: DIQMTQSPSSLSASVGDRVTITCRASQSISSYLNWYQQKPGKAPKLLIYAASSLQSGVPSRFSGSGSGTDFTLTISSLQPEDFATYYCLQFDSYPLTFGGGTKVEIKRTVAAPSVFIFPPSDEQLKSGTASVVCLLNNFYPREAKVQWKVDNALQSGNSQESVTEQDSKDSTYSLSSTLTLSKADYEKHKVYACEVTHQGLSSPVTKSFNRGEC
notes: IgG antibody-like molecule
B2: 20A11-G1m/VL1-44-lamL (other)
heavy: B1 heavy
light: QSVLTQPPSASGTPGQRVTISCSGSSSNIGSNTVNWYQQLPGTAPKLLIYSNNQRPSGVPDRFSGSKSGTSASLAISGLQSEDEADYYCGTWDGGVTGVVFGGGTKLTVLGQPKAAPSVTLFPPSSEELQANKATLVCLISDFYPGAVTVAWKADSSPVKAGVETTTPSKQSNNKYAASSYLSLTPEQWKSHRSYSCQVTHEGSTVEKTVAPTECS
notes: IgG antibody-like molecule; VHH 20A11 in place of VH
B3: bC3edL1R1N160H01-G1mISHI01/VK1-39-k0MT (other)
heavy: QVQLVESGGGLVQPGGSLRLSCAASGFTFNHCWMYWVRQAPGKGLEWVSVINTDGGSAYYADSVKGRFTISRDNAKNTLYLQMNSLKSEDTAVYYCARDWAPLVDYYYGMDYWGKGTLVTVSGGSGLSGRSDNHGSSGGSS[gap - human IgG1 constant region]
light: B1 light
notes: protease-untreated
B4: bC3edL1R1N161H01-G1mISHI01/VK1-39-k0MT (other)
heavy: QVQLVESGGGLVQPGGSLRLSCAASGFPFDNYVMSWVRQAPGKGLEWISAISWNGGSTYYAESMKGRFTISRDNAKSTLYLQMNSLKSEDTAVYYCAKEPRVYYSGSPDYWGQGTQVTVSGGSGLSGRSDNHGSSGGSS[gap - human IgG1 constant region]
light: B1 light
notes: protease-untreated
B5: bC3edL1R1N164H01-G1mISHI01/VK1-39-k0MT (other)
heavy: QVQLVESGGGLVQPGGSLRLSCAASGFTFDVYGMSWVRHSPGKGLEWVSTINWNGGSTYYAESMKGRFTISRDNAKNTVYLQMNSLKPEDTAVYYCAKFAPWDGDMEWGQGTQVTVSGGSGLSGRSDNHGSSGGSS[gap - human IgG1 constant region]
light: B1 light
notes: protease-untreated

Assays:
soluble human IL-6R = target: T1, soluble human IL-6R; assay: BLI (Octet), in the same way as in Example 3
human CD3ed-Fc = target: T2, human CD3ed-Fc; assay: BLI (Octet RED), human CD3ed-Fc on the sensor, protease-untreated molecule as analyte
Experimental: The protease concentration was set to 25 nM, and Octet RED (Pall ForteBio Corp.) was used in the assay.
Next, the CD3 binding evaluation of VHH released by protease treatment was conducted in the same way as in Example 3.

Binder | binding result (soluble human IL-6R) | binding result (human CD3ed-Fc)
B1 | binds | –
B2 | binds | –
B3 | – | no binding
B4 | – | no binding
B5 | – | no binding
